Results from PubChem BioAssay AID651597 (National Center for Advancing Translational Sciences (NCATS), 2012).
The whole screen tested about 1,100 compounds, of which about 390 (35%) were called active. This list was built around the results that the source calls inconclusive (neither active nor inactive); the mix of calls is not that of the screen. Calls come from the whole dose curve; as a rule, active = well fitted inhibition curve with a large enough effect; inconclusive = small, poorly fitted or top-dose-only effect; inactive = flat fitted curve, though single readings scatter. Where the call is inconclusive, the potency comes from a doubtful curve fit.

molecular target: Luciferin 4-monooxygenase (Photinus pyralis) (UniProt P08659); assay: qHTS of Nrf2 Activators: Hit Validation in Secondary FLuc Assay; conditions: firefly luciferase inhibition counter-screen, luminescence; series mostly up to 57.5 µM; activity, negative = inhibition: at the top concentration; note: nearly all actives have a fitted effect of over 65% in size
Procedure, shortened: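 Counter-screen on purified firefly luciferase with ATP and D-luciferin at Km concentrations; compounds flagged if they inhibit the enzyme, indicating possible reporter stabilization rather than ARE activation.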
% is set by controls: 0 for no effect and ±100 for the full control effect; potency is the fitted concentration of half-maximal effect; tags give direction and shape of the fitted curve.

Compound	activity, negative = inhibition	Potency
Cc1ccc(S(=O)(=O)c2nc(S(C)(=O)=O)sc2N2CCC(O)CC2)cc1	inactive: -0.609%	–
O=C(Nc1cccnc1)C1(F)C(F)(F)C(F)(F)C(F)(F)C(F)(F)C1(F)F	inactive: -3.88%	–
Cc1ccccc1NC(=O)/C(C#N)=C\c1ccsc1	–	inconclusive: 7.57 µM [inhibitor, full curve]
Clc1ccc(C=Cc2ccccn2)c(Cl)c1	–	active: 0.338 µM
CCc1nc(Nc2cccc(F)c2)c2oc3ccccc3c2n1	inactive: -22.6%	–
O=C(Nc1ccccc1)Nc1cccc2nsnc12	–	active: 2.69 µM
CSc1nc(N)nc(SCC(=O)c2ccccc2)c1C#N	–	inconclusive: 13.5 µM [inhibitor, partial curve]
O=C(COCc1cc(-c2cccs2)on1)Nc1cc(Cl)ccc1O	inactive: -0.806%	–
CCOc1ccc(Br)cc1-c1noc(-c2cccs2)n1	inactive: -20.8%	–
Cc1cccc(NC(=S)NC(=O)c2ccc(Br)o2)c1	–	inconclusive: 6.75 µM [inhibitor, full curve]
COc1ccc(OC)c(C=C2CCc3ccccc3C2=O)c1	–	inconclusive: 13.5 µM [inhibitor, partial curve]
O=C(CCN1CCC(c2ccccc2)C1)c1ccc2c(c1)OCCO2 (stereo not given)	–	inconclusive: 37.9 µM [inhibitor, single point]
CCOc1ncccc1C(=O)NNC(=O)c1ccc(NS(=O)(=O)c2cccs2)cc1	inactive: -0.928%	–
CCCC(=O)Nc1sc(C)c(C)c1C#N	–	inconclusive: 23.9 µM [inhibitor, single point]
O=C(Nc1ccc(F)cc1)c1nsc(Cl)c1Cl	–	active: 1.69 µM
COC(=O)c1ccccc1NC(=O)COc1ccccc1[N+](=O)[O-]	–	inconclusive: 21.3 µM [inhibitor, single point]
N#C/C(=C1/C(=O)Nc2ccc(Br)cc21)c1ccccn1	–	inconclusive: 37.9 µM [inhibitor, single point]
O=c1cc(COc2ccccc2[N+](=O)[O-])nc2sccn12	–	inconclusive: 26.9 µM [inhibitor, single point]
CNc1ccc(Br)cc(C(=O)/C=C/c2cccc(Cl)c2Cl)c1=O	–	active: 4.78 µM
COC(=O)c1sccc1NC(=O)c1ccccc1F	inactive: 2.44%	–
Cc1cc(SCC(=O)c2cccs2)nc2ccccc12	–	inconclusive: 9.53 µM [inhibitor, partial curve]
O=C(NCc1ccco1)c1n[nH]c(=O)c2ccccc12	inactive: 7.6%	–
O=[N+]([O-])c1ccc(SCc2ccco2)cc1N1CCOCC1	–	inconclusive: 16.9 µM [inhibitor, partial curve]
CC(/C=N/n1c(-c2ccncc2)n[nH]c1=S)=C\c1ccco1	–	inconclusive: 6.75 µM [inhibitor, partial curve]
COc1ccc(Nc2nnc(SCC(=O)c3cc4ccccc4o3)s2)cc1	–	inconclusive: 15.1 µM [inhibitor, partial curve]
COC(=O)c1ccccc1NC(=O)COCc1cc(-c2cccs2)on1	inactive: -17.5%	–
Cn1c(=O)c(C(=O)NNC(=O)c2ccccc2F)c(O)c2ccccc21	inactive: -25.6%	–

Compound	activity, negative = inhibition	Potency
Cc1cc(N2CCOCC2)n2nc(-c3cccc(F)c3)cc2n1	inactive: -21.8%	–
Fc1c(F)c(C(F)(F)F)c(F)c(F)c1N/N=C\c1cccs1	–	inconclusive: 12 µM [inhibitor, partial curve]
CN(C)CCNC(=O)c1cccc2ccc(-c3ccc(-c4ccccc4)cc3)nc12	inactive: -22.3%	–
O=C(Cn1ncc(Cl)c(Cl)c1=O)NC1CCS(=O)(=O)C1 (stereo not given)	–	inconclusive: 37.9 µM [inhibitor, single point]
COc1ccccc1CNC(=O)COC(=O)c1cc(-c2ccco2)nc2ccccc12	–	active: 5.36 µM
COc1ccc(Cl)cc1NC(=O)C1COc2ccccc2O1 (stereo not given)	–	inconclusive: 23.9 µM [inhibitor, single point]
Cc1c(Cl)cccc1N=c1c([N+](=O)[O-])nn(-c2ccccc2)n1O	–	inconclusive: 30.1 µM [inhibitor, single point]
O=C(Nc1ccccn1)c1ccc(Cl)c([N+](=O)[O-])c1	–	inconclusive: 23.9 µM [inhibitor, partial curve]
CC(=O)c1ccccc1NC(=O)COC(=O)/C=C/c1ccc(C)o1	–	inconclusive: 26.9 µM [inhibitor, single point]
CCN(CC)c1ccc2c(c1)oc(=O)c1c(Cl)cc(=O)oc12	–	active: 6.01 µM
S=c1[nH]nc(-c2cccnc2)n1/N=C/C(Cl)=C\c1ccccc1	–	inconclusive: 6.01 µM [inhibitor, partial curve]
N/C(=N\OC(=O)c1cccc2ccccc12)c1ccc(Br)cc1	–	inconclusive: 19 µM [inhibitor, partial curve]
O=C(Nc1ncc2c(n1)-c1ccccc1CC2)c1ccccc1	–	inconclusive: 15.1 µM [inhibitor, partial curve]
Clc1ccsc1-c1csc(-c2cccnc2)n1	–	active: 3.38 µM
CSc1c(C#N)c(N)nc2sc(C(=O)c3ccccc3)c(N)c12	–	inconclusive: 23.9 µM [inhibitor, single point]
[O-][n+]1onc2c3cc(-c4ccccc4)nnc3ccc21	inactive: -23.4%	–
C#CCSc1nnc(-c2sc3ccccc3c2Cl)o1	–	active: 2.39 µM
O=C(NC(=S)Nc1nc(-c2ccccc2)cs1)c1cccs1	–	inconclusive: 9.53 µM [inhibitor, partial curve]
Cc1ccc(S(=O)(=O)c2nc(S(C)(=O)=O)sc2N2CCCCC2C)cc1 (stereo not given)	inactive: 3.09%	–
O=C(NNC(=O)C12CC3CC(CC(C3)C1)C2)c1cccc([N+](=O)[O-])c1	inactive: -24.4%	–
COC(=O)c1ccc2nc(-c3ccco3)c(Cc3cccc(Cl)c3)n2c1	–	active: 12 µM
c1ccc(-c2noc(-c3cccc4ccccc34)n2)cc1	–	active: 0.953 µM
CC(C)(C)OC(=O)NCCC(=O)N/N=C/c1cccc2cccnc12	inactive: -3.55%	–
N#C/C(=C(/O)c1ccco1)c1nc2ccccc2[nH]1	–	active: 3.79 µM
O=c1c(-c2ccco2)[n+]([O-])c2ccccc2n1OCc1c(F)cccc1F	–	inconclusive: 30.1 µM [inhibitor, single point]
CC(C)CCNC(=O)c1cc(-c2ccco2)nc2ccccc12	–	inconclusive: 12 µM [inhibitor, partial curve]
COc1ccc(Cl)cc1C(=O)O/N=C(\N)c1ccc(Cl)cc1	–	active: 9.53 µM

Compound	activity, negative = inhibition	Potency
CCn1c(SCC(=O)N/N=C/C=C/c2ccco2)nc2ccccc21	–	inconclusive: 21.3 µM [inhibitor, single point]
Cc1ccc(-c2nc(C=Nc3ccc(O)cc3)c(O)o2)cc1	–	active: 2.69 µM
COCCNc1ccc(-c2nc(-c3ccco3)no2)cc1[N+](=O)[O-]	–	active: 0.478 µM
Fc1ccc(-c2nc3c4ccccc4ccn3c2Cc2ccccc2C(F)(F)F)cc1	–	inconclusive: 10.7 µM [inhibitor, partial curve]
C=CCSc1nccc(-c2cc(Cl)sc2Cl)n1	inactive: -29.5%	–
Brc1ccc(-c2nnc(-c3cccnc3)c3conc23)cc1	inactive: -20.3%	–
Cc1ccccc1-c1noc(-c2ccccc2C(=O)NCc2ccco2)n1	–	inconclusive: 26.9 µM [inhibitor, single point]
O=C1NC(=Nc2ccc(O)cc2)S/C1=C/c1ccco1	–	inconclusive: 4.78 µM [inhibitor, full curve, poor fit]
CCn1c(/C=C/c2ccccc2F)nc2ccccc2c1=O	–	inconclusive: 37.9 µM [inhibitor, single point]
Oc1ccc2ccccc2c1/C=C/c1ccc2c(Br)cc(Br)c(O)c2n1	–	active: 10.7 µM
COc1ccc(NC(=O)Nc2nnc(-c3ccccc3F)s2)cc1	–	inconclusive: 30.1 µM [inhibitor, single point]
CCSc1nc2ccccc2n1C(=O)/C=C\c1ccc(OC)c(OC)c1	–	inconclusive: 21.3 µM [inhibitor, single point]
Cc1ccc(N=C/C(C(=O)C(F)(F)F)=C(\O)c2ccco2)cc1Cl	–	active: 3.01 µM
COc1ccc(Cl)cc1NC(=O)c1ccco1	inactive: 0.501%	–
COC(=O)c1ccsc1NC(=O)CSc1nnnn1Cc1ccccc1	inactive: -14.3%	–
O=C1C(Cl)=C(Nc2ccccc2)C(=O)c2ccccc21	–	inconclusive: 9.53 µM [inhibitor, partial curve]
CC(C)c1ccc(NC(=O)c2cc(Br)ccc2Br)cc1	–	inconclusive: 10.7 µM [inhibitor, partial curve]
CCN(C(=O)c1ccco1)c1nc(CC(=O)Nc2ccc(Cl)cc2)cs1	–	inconclusive: 23.9 µM [inhibitor, single point]
CC(C)C(=O)Nc1nnc(-c2ccco2)s1	–	inconclusive: 21.3 µM [inhibitor, single point]
CCOC(=O)COn1c(=O)c(-c2ccco2)[n+]([O-])c2ccccc21	–	inconclusive: 23.9 µM [inhibitor, single point]
COC(=O)c1cc2nc(-c3ccccc3)cc(C(F)(F)F)n2n1	inactive: 0.282%	–
CCN1C(=O)/C(=C\c2ccco2)C(C(=O)OC)=C1C	inactive: -1.69%	–
CCn1c(/C=C/c2ccccc2[N+](=O)[O-])nc2ccccc2c1=O	–	inconclusive: 21.3 µM [inhibitor, single point]
O=C(N/N=C/c1cn[nH]c1-c1ccccc1)c1ccco1	inactive: -26.1%	–
S=c1nc(-c2ccccc2)[nH]c2ccc(Br)cc12	–	inconclusive: 23.9 µM [inhibitor, single point]
COC(=O)c1sccc1NC(=O)c1csc(C)c1	–	inconclusive: 23.9 µM [inhibitor, single point]
